From article PMC4336329 (PLoS ONE, 2015)
About 14,000 (4.5%) of roughly 310,000 compounds showed an effect of 50% or more. The effect is printed as a negative number. Some of the results follow.

molecular target: human ether-à-go-go-related gene (hERG) potassium channel (human, UniProt Q12809); experiment: primary screen, population patch clamp on CHO cells stably expressing hERG
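Further: peak tail current of the secondary pulse compared with the same well before compound.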

human ether-à-go-go-related gene (hERG) potassium channel, sequence (Q12809 whole entry, looked up): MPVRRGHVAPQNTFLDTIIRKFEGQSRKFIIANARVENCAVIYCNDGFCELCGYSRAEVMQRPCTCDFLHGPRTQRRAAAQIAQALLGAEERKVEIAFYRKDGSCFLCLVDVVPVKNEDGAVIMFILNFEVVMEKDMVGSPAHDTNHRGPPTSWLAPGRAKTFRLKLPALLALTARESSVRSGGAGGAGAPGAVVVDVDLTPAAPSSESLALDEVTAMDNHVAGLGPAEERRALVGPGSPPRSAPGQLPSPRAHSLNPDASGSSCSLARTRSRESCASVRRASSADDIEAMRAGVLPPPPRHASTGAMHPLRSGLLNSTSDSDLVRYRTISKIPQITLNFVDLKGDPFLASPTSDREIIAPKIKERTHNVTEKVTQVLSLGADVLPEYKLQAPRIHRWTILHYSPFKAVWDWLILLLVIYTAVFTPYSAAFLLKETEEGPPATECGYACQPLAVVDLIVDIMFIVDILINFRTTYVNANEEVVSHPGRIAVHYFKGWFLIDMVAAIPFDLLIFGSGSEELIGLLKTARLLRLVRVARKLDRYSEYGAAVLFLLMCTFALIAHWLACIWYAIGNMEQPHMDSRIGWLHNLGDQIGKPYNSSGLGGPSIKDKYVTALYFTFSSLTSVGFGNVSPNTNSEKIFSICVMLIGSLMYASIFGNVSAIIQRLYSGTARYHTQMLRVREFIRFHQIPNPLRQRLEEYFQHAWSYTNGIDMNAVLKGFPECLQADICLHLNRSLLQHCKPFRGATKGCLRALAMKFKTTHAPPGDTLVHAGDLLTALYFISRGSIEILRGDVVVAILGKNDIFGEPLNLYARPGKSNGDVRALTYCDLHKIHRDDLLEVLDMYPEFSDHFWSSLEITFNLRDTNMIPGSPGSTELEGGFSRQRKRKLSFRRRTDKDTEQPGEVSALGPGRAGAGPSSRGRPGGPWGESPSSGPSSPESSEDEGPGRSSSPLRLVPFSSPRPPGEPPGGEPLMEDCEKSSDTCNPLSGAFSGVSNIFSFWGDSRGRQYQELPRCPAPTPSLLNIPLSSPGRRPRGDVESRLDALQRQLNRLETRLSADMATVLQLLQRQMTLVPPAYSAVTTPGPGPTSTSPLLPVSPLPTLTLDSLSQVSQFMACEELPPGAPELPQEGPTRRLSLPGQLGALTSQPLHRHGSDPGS

Row | Structure (SMILES) | hERG current change (%, negative = inhibition) at 10uM
1 | Cc1ccc(/C=C2\CCC3=C2OC(N)=C(C#N)C3c2ccc(C)cc2)cc1 (stereo not drawn) | 10.6%
2 | Cc1cc(O)ccc1Nc1nc(-c2sc(N)nc2C)cs1 | -21.7%
3 | COc1cc(=O)n(C)c2c(O)cccc12 | 21%
4 | O=C(Nc1ccccc1N1CCOCC1)c1ccc(Cl)c(S(=O)(=O)N2CCCC2)c1 | -11.3%
5 | COc1ccc(C(=O)Nc2cc3c4c(c2)C(C)C(=O)N4CCC3)c(OC)c1 (stereo not drawn) | -10.5%
6 | CCOC(=O)Cc1csc(NC(=O)/C=C/c2ccc(OC)cc2)n1 | 19.7%
7 | COc1cc(O)c(C(CCN2CCCCC2)c2cc(OC)c(OC)c(OC)c2)c(OC)c1 (stereo not drawn) | 4.24%
8 | O=C(NCCOC(=O)c1ccc(Cl)cc1)c1ccc[nH+]c1.[Cl-] | -24.2%
9 | NNC(=O)c1sc2cc(C(F)(F)F)cnc2c1-c1cccnc1 | 25.7%
10 | CCc1ccccc1NC1=CC(=O)CC(C)(C)C1 | 3.98%
11 | C/C(CC1CC(COCCC(C)C)OC1=O)=N\NC(N)=S (stereo not drawn) | 4.37%
12 | CCN(CC)C(=O)COc1ccc(Br)cc1Cl | -11.8%
13 | Cc1ccc(C2(CC(=O)Nc3nccs3)CCOC(C(C)C)C2)cc1 (stereo not drawn) | -11.5%
14 | COc1cccc(/C=C/C(=O)OCC(=O)Nc2ccc(Cl)c(S(=O)(=O)N(C)C)c2)c1OC | 2.82%
15 | CC(C)C(O)(CC#CCN1CCCC1)c1ccccc1.Cl (stereo not drawn) | 11.3%
16 | Cc1cc(-c2nn3c(C)nnc3s2)ccc1NC(=O)C(C)(C)C | 10.7%
17 | O=C(NCc1ccc(OC(F)(F)F)cc1)C12CN(Cc3ccccc3)CC1C(c1cccc([N+](=O)[O-])c1)=NO2 (stereo not drawn) | 18.5%
18 | O=C(NCCCN1CCCC1)c1ccc2c(c1)N(Cc1cccc(Cl)c1)C(=O)c1ccccc1S2=O (stereo not drawn) | -15.6%
19 | COc1ccc(N2C(=S)NC3N2C(=S)NC3(C)c2ccccc2)cc1 (stereo not drawn) | 8.31%
20 | COc1ccc2oc(=Nc3cccc(F)c3)c(C(N)=O)cc2c1 | 22.3%
21 | C/C(=N/NC(=O)c1ccoc1C)c1ccc(N2CCOCC2)cc1 | -10.2%
22 | Cc1ccccc1COc1ccc(-c2nnn(CC(=O)O)n2)cc1 | 20.2%

Row | Structure (SMILES) | hERG current change (%, negative = inhibition) at 10uM
23 | C/C=C/C(=O)Nc1cccc(C2=NOC3(C2)C[C@@H](C(N)=O)N(C(=O)c2cc([N+](=O)[O-])cc([N+](=O)[O-])c2)C3)c1 (stereo partly drawn) | 20%
24 | COc1ccc(-c2nn(-c3ccccc3)cc2/C=C2/SC(=S)N(Cc3ccco3)C2=O)c(C)c1 | 8.73%
25 | Cc1nc2c(cc1C(=O)N/N=C/c1ccc(O)c(O)c1)c(=O)n(C)c(=O)n2C | -1.43%
26 | Cc1cccc(N(Cc2ccccc2)C(=O)c2ccc(S(C)(=O)=O)cc2)c1 | -2.9%
27 | COc1ccc(C(CCNCc2ccccc2F)c2ccc(F)cc2)cc1 (stereo not drawn) | -75.5%
28 | CC(Oc1cccnc1[N+](=O)[O-])C(=O)Nc1ccc(Cl)cn1 (stereo not drawn) | -16.6%
29 | Cc1ccc2[nH]c(=O)c(C(c3nnnn3C(C)(C)C)N(Cc3ccco3)CC3CCCO3)cc2c1 (stereo not drawn) | 8.84%
30 | COc1ccc2c(c1)c(C(C)=O)c(C)n2-c1ccccc1OC | -1.09%
31 | CC(C)CN(C(=O)COC(=O)/C=C/c1ccccc1)C1CCS(=O)(=O)C1 (stereo not drawn) | -10.7%
32 | COc1ccc(-c2nn(CCC#N)cc2C(=O)Nc2ccc(C(C)=O)cc2)cc1 | 6.39%
33 | CCOC(=O)c1c(C)c(C(=O)NCc2cccnc2)c(C)n1CC | 4.72%
34 | Fc1ccccc1OCCSc1nnnn1-c1ccccc1 | -10.1%
35 | C[C@@H]1NC(=O)/C(=C\c2ccccc2Br)NC1=O | 10.5%
36 | C/C(Cl)=C/Cn1c(NCCN(C)C)nc2c1c(=O)n(C)c(=O)n2C | -26.9%
37 | Nc1nc(NCCOCCO)nc(N2CCCCCC2)c1[N+](=O)[O-] | -8.23%
38 | CN(CC(=O)Nc1c(Cl)cccc1Cl)C(=O)c1sccc1-c1ccccc1 | -8.18%
39 | CCOC(=O)C1CCN(c2ncnc3c2c(-c2ccccc2)cn3-c2ccccc2)CC1 | 18%
40 | CCOC(=O)C1=C(C)Nc2nc(C)nn2C1c1cc(OC)ccc1OC (stereo not drawn) | 7.1%
41 | CN(C)CCCNC(=O)COc1ccc(Br)cc1Cl | -20.7%
42 | COc1ccc(CCNC(=O)c2n[nH]c3ccccc23)cc1 | 38.5%
43 | O=C(OCC#CCSc1nnc(-c2ccccc2)o1)c1cccs1 | -17.7%
44 | O=Cc1ccc(-c2ccc(Cl)cc2Cl)[nH]1 | 5.18%

Row | Structure (SMILES) | hERG current change (%, negative = inhibition) at 10uM
45 | CCCc1nnc(NC(=O)CC(=O)Nc2ccccc2C(=O)O)s1 | 14.1%
46 | O=C1C=C(c2ccc(C(=O)O)cc2)C[C@@H](c2ccc(Cl)cc2)C1 | 18.2%
47 | Cc1nn2c(=O)cc(COC(=O)c3ccc(S(=O)(=O)N4CCCCC4)cc3)nc2s1 | -3.51%
48 | CC(=O)Nc1ccc(OCCOc2ccc([N+](=O)[O-])cc2)cc1 | 0.991%
49 | Cc1ccc(C(=O)NCCCN2CCOCC2)cc1Cl | 8.74%
50 | CN(C)c1cccc(C(=O)NCC2CCCO2)c1 (stereo not drawn) | 6.93%
51 | COc1ccc(N2CCN(C(=O)c3oc4ccccc4c3NC(=O)Cc3cccc(OC)c3)CC2)cc1 | -30.2%
52 | COc1ccc(NC(=O)/C(C#N)=C/c2ccc(OCc3ccccc3F)cc2)cc1 | 5.01%
53 | O=C1c2ccccc2C(=O)N1Cc1ccc2c(c1)OCO2 | 9.36%
54 | CC(Oc1cccc(Cl)c1)C(=O)Nc1ccccc1C(=O)N1CCCCC1 (stereo not drawn) | -7.54%
55 | CC(=O)Nc1ccc(S(=O)(=O)Nc2nnc(C(C)C)s2)cc1 | 6.53%
56 | Cc1ccc(O)c(C(=O)c2cc(C#N)c(=O)n(CC3CCCO3)c2)c1 (stereo not drawn) | -28.7%
57 | Cc1cc(S(N)(=O)=O)ccc1N=Cc1c(O)n(-c2ccccc2)c(=O)[nH]c1=O | 12.1%
58 | Cc1cc(C)c(C#N)c(SCC(=O)Nc2ccccc2C)n1 | 12.7%
59 | O=C(CSc1ccc(-c2ccccc2)nn1)NCC1CCCO1 (stereo not drawn) | 9.38%
60 | COC(=O)c1ccc(N2CCN(C)CC2)c(NC(=O)COc2cccc(C)c2)c1 | -18.9%
61 | COc1ccccc1N(Cc1ccccc1)S(=O)(=O)c1cccc(C(=O)Nc2ccc(C(C)=O)cc2)c1 | -1.35%
62 | Cc1nc(-c2cccnc2)sc1C(=O)Nc1cccc(C(F)(F)F)c1 | -32.8%
63 | O=CN1CC(=O)N(c2ccccc2)c2c([nH]c3ccccc23)C1 | -23.2%
64 | COC(=O)c1ccc(Oc2c(Cl)cccc2[N+](=O)[O-])cc1 | 3.65%
65 | Cc1ccc(NC(=O)c2nnn(CC(=O)Nc3ccc4c(c3)OCO4)c2N)cc1C | 8.01%
66 | CCCCN1c2ccccc2N(CCCO)c2cc(C)nnc21 | -14.2%

Row | Structure (SMILES) | hERG current change (%, negative = inhibition) at 10uM
67 | Cc1ccc(C(=O)Oc2ccc3ccc(=O)oc3c2)cc1 | 7.18%
68 | Cc1ccc(S(=O)(=O)N2CCN(c3ncccn3)CC2)c(C)c1 | 7.37%
69 | c1ccc(-c2nn3nnnc3c3ccccc23)cc1 | -71.8%
70 | Cc1cc(N2CCOCC2)nc2ccc(NC(=O)CCC(=O)N3CCCC(C)C3)cc12 (stereo not drawn) | -20.5%
71 | COc1ccc(N2CCN(S(=O)(=O)c3cccs3)CC2)cc1 | -5.58%
72 | O=C1CSC2(N1)C1CC3CC(C1)CC2C3 (stereo not drawn) | 7.2%
73 | Cc1c(O)c(=O)n(-c2ccccc2)n1C | 12.4%
74 | CNC(=O)c1ccccc1NC(=O)c1cccc(S(=O)(=O)N2CCCCC2)c1 | -51.1%
75 | COc1ccc(NC(=O)Cc2nnc(SCC(=O)Nc3ccc(F)cc3)n2C)cc1 | -13.7%
76 | Cc1csc(=O)n1CC(=O)OCC(=O)Nc1ccc(F)c(F)c1 | 7.51%
77 | COc1ccc(CC(=O)Nc2ccccc2NC(=O)Cc2ccc(OC)cc2)cc1 | 8.9%
78 | COc1ccc(NC(=O)c2ccc(C)cc2)c[n+]1[O-] | 15.6%
79 | Cc1cccc(C(=O)N[C@H](C(=O)OCC(=O)NC2CCS(=O)(=O)C2)C(C)C)c1 (stereo partly drawn) | 21.1%
80 | C#Cc1ccc([C@@H]2C=C(C(=O)NC3CC3)O[C@H](OCC)[C@H]2CCCO)cc1 | -35.2%
81 | O=C(Oc1ccccc1)c1cc2ccccc2oc1=O | 10.3%
82 | Cc1ccc(Cl)cc1NC(=O)COC(=O)CC(C)(C)C | 2.56%
83 | CC1CCCN(S(=O)(=O)CCNC(=O)c2ccccc2)C1 (stereo not drawn) | 2.82%
84 | COC(=O)c1ccc(-c2nc(-c3cccs3)no2)cc1 | 11.5%
85 | CCCc1cc(=O)[nH]c(SCC(=O)c2ccc3c(c2)NC(=O)CO3)n1 | -10.1%
86 | COc1cc(/C=C2/C(=O)NN(c3ccc(Cl)c(Cl)c3)C2=O)cc([N+](=O)[O-])c1O | 10.6%
87 | COc1ccc(-n2c(=O)[nH]cc(C(=O)Nc3ccc(NC(C)=O)cc3)c2=O)cc1 | 9.69%
